Source: patent publication EP4736886A1, “METHOD FOR PREPARING ANTIBODY-SMALL MOLECULE DRUG CONJUGATE AND USE THEREOF” (priority 2023, dated 2025)
Changes are numbered by the printed parent chain.

B1: Mutant 39-DXd (conjugate)
heavy: QVQLVESGGGLVQPGGSLRLSCAASGITFPVNAYGWYRQAPGKQRDLVAIISAGGTTNYADSVKGRFTISRDNSKNTLYLQMNSLRAEDTAVYYCYLQRRIGMLRDYWGQGTQVTVSSERKCDDCVECPPCP[human IgG4 Fc not spelt out]
B2: Mutant 40-DXd (conjugate)
heavy: B1 heavy with D123E, D124E
B3: Mutant 22-DXd (conjugate)
heavy: QVQLVESGGGLVQPGGSLRLSCAASGITFPVNAYGWYRQAPGKQRDLVAIISAGGTTNYADSVKGRFTISRDNSKNTLYLQMNSLRAEDTAVYYCYLQRRIGMLRDYWGQGTQVTVSSERKCEECVE[human IgG1 Fc not spelt out]
B4: Mutant 23-DXd (conjugate)
heavy: B3 heavy with E123D, E124D

System: not listed separately
Assay: Size-exclusion chromatography analysis of aggregate formation
Assay type: physicochemical
Details: DXd conjugates, FIG. 7 and FIG. 9
Description: Size-exclusion chromatography analysis was performed. […]
Based on Antibody 3 and Antibody 4, amino acid residues with different properties were inserted between the cysteine residues at positions 4 and 5. Specifically: nonpolar amino acids, exemplified by the insertion of two alanine residues (A); polar uncharged amino acids, exemplified by the insertion of two serine residues (S); basic amino acids, exemplified by the insertion of two lysine residues (K); and acidic amino acids, exemplified by the insertion of two glutamic acid residues (E) or two aspartic acid residues (D), as shown in Table 5. The different mutants were expressed and purified. […]
The different mutants listed in Table 6 were expressed and purified. […] The thermal stability of these ten heavy-chain antibodies was further evaluated using dynamic light scattering (DLS). A DLS (Wyatt) instrument was used to monitor light scattering of the antibodies during heating from 25 °C to 85 °C, thereby determining the aggregation temperature (Tagg) of the antibodies.
VHH1 was separately linked to the engineered human IgG2 Fc or the engineered human IgG4 Fc shown in Table 7 to construct heavy-chain antibodies. After expression and purification, Mutant 37, Mutant 38, Mutant 39, and Mutant 40 were obtained.

Row | Molecule | size-exclusion chromatography peak profile after conjugation
1 | B1 | normal
2 | B2 | normal
3 | B3 | nearly identical to those of corresponding mutants before conjugation
4 | B4 | nearly identical to those of corresponding mutants before conjugation

System: OVCAR-3 cells
Assay: Cell killing assay, cell viability by CellTiter-Glo
Assay type: cell-based, human
Details: 5 days at 37°C; compared to Antibody 1-DXd, FIG. 11
Description: OVCAR-3 cells were seeded into a 96-well plate at a density of 5,000 cells per well and cultured overnight at 37°C. Antibody 1-DXd, Mutant 22-DXd, Mutant 23-DXd, Mutant 37-DXd, Mutant 38-DXd, Mutant 39-DXd, and Mutant 40-DXd were serially diluted and added to the 96-well plate containing OVCAR-3 cells, followed by incubation at 37°C for 5 days. Cell viability was measured using CellTiter-Glo (Promega) to evaluate the killing effects of the antibody-drug conjugates.

Row | Molecule | killing effect on OVCAR-3 cells
5 | B1 | significantly enhanced killing effect
6 | B2 | significantly enhanced killing effect
7 | B3 | significantly enhanced killing effect
8 | B4 | significantly enhanced killing effect

System: not listed separately
Assay: Hydrophobic interaction chromatography and LC-MS analysis of drug loading
Assay type: physicochemical
Details: after TCEP reduction and conjugation with maleimide-GGFG-DXd
Description: Antibody 1 and Antibody 2 were separately incubated with TCEP (Sigma) to reduce and open the disulfide bonds between the two heavy chains, followed by the addition of maleimide-GGFG-DXd (MedChemExpress) for conjugation. The conjugates were then purified using a desalting column to remove excess small-molecule drug.

Row | Molecule | drug-to-antibody ratio (DAR) value
9 | B1 | 8
10 | B2 | 8
